Laboratory results taken from PubChem BioAssay AID463173 (ICCB-Longwood Screening Facility, Harvard Medical School, 2010).
Hit rate of the full screen: of about 52,000 compounds, about 4,300 (8.3%) were called active. Cut-off read from the data, not from the text of the source: active = survival mostly below about 52% (no sharp cut-off); inactive = mostly above about 56%. The list shows a part of the results.

system: DeltatarO mutant; experiment: growth inhibition of S. aureus wild type versus tarO mutant, primary screen, teichoic acid synthesis inhibitors, RN4220, OD600 (AID 463173); conditions: OD600, 18 h, hits give low values, screened at 18.75 µg/mL (by protocol)

Structure (SMILES) | survival
CCOc1ccccc1NC(=O)C1CCCN(S(=O)(=O)c2cn(C)cn2)C1 (configuration not stated) | inactive: 92%
CCOC(=O)c1c(C)oc2nc(C)nc(Nc3cc(C)ccc3OC)c12 | inactive: 79%
CCCc1cc(=O)[nH]c(Nc2ccc(O)cc2C)n1 | inactive: 108%
O=C(CSc1nc2ccccc2nc1Cc1ccccc1)N1CCCc2ccccc21 | inactive: 75%
CCOC(=O)c1cccc(NC(=O)c2sc3nc[nH]c(=O)c3c2C)c1 | inactive: 83%
CCc1ccc2occ(CC(=O)N(Cc3ccc(N(C)C)cc3)C3CCS(=O)(=O)C3)c2c1 (configuration not stated) | inactive: 87%
COc1cc(-c2ccno2)ccc1S(=O)(=O)N1CCN(c2ccc(F)cc2)CC1 | inactive: 67%
CC(C)C(=O)N1CCN(c2ccc(NC(=O)Cc3ccccc3)cc2Cl)CC1 | inactive: 60%
CCOC(=O)N1CCC(NC(=O)c2ccc3c(c2)N(Cc2ccc(Cl)cc2)C(=O)c2ccccc2S3=O)CC1 (configuration not stated) | inactive: 67%
Cc1cccc(N(C)S(=O)(=O)c2nnc(NC(=O)C3CCCCC3)s2)c1 | inactive: 72%
CCc1cccc(NC(=O)COc2cc(=O)n(CC)c3ccccc23)c1 | inactive: 115%
Cn1ccc2cc(S(=O)(=O)N3CCN(C(=O)Nc4ccccc4F)CC3)ccc21 | inactive: 84%
CCOC(=O)c1c(Nc2cccc(C)c2)nnc(-c2ccccc2)c1-c1ccccc1 | active: -4%
Fc1cccc(Nc2nc(Cl)nc(Cl)n2)c1 | inactive: 93%
O=C(Cn1ncc2c3ccccc3n(Cc3cccc(Cl)c3)c2c1=O)N1CCCCCC1 | inactive: 87%
O=C(NCc1ccco1)c1ccc2c(c1)N(Cc1cccc(Cl)c1)C(=O)c1ccccc1S2=O (configuration not stated) | inactive: 63%
CCOc1ccc(CCNC(=O)Cn2c(C)c3cnn(-c4ccccc4)c(=O)c3c2C)cc1 | inactive: 91%
COc1cc(OC)c(NC(=O)CSc2cc(=O)n(C)c3ccc(Cl)cc23)cc1Cl | inactive: 54%
CCc1ccc(NC(=O)CC2C(=O)N(c3ccc(Cl)cc3)C(=O)N2C2CCCC2)cc1 (configuration not stated) | inactive: 134%

Structure (SMILES) | survival
CCc1c(CN2CCN(c3cccc(C)c3)C(C)C2)csc1C (configuration not stated) | inactive: 76%
CCn1cc(C(=O)NC2CCCCC2)c(=O)c2ccc(C)nc21 | inactive: 110%
CCc1ccc(NC(=O)c2sc3nc(C)cc(C)c3c2NC(=O)c2ccccc2OC)cc1 | inactive: 69%
CCN(Cc1ccccc1)C(=O)CCS(=O)(=O)c1ccc2c(c1)CCN2C(C)=O | inactive: 90%
O=C(NC1CCCCC1)c1ccc2c(c1)N(Cc1cccc(Cl)c1)C(=O)c1ccccc1S2=O (configuration not stated) | inactive: 101%
COc1ccc(CN2CCN(S(=O)(=O)c3ccc(NC(C)=O)cc3)CC2)c(OC)c1OC | inactive: 61%
CCc1ccc(-c2nc(CSCC(=O)NCc3ccc(C)cc3)c(C)o2)cc1 | active: -3%
CC(=O)c1cc2c(cc1N/C(=N/S(=O)(=O)c1ccc(F)cc1)c1ccccc1)OCO2 | inactive: 71%
COc1ccc(CNC(=O)C2CCN(S(=O)(=O)c3ccc4c(ccn4C)c3)CC2)cc1 | inactive: 76%
O=C(C1CCC1)N1CCCC(c2nc3c(nnn3Cc3cccc(Cl)c3)c(=O)[nH]2)C1 (configuration not stated) | inactive: 101%
COc1ccc(C(=O)CCC(=O)Nc2cc(C)ccc2C)cc1 | inactive: 83%
Cc1cccc2sc(N(Cc3cccnc3)C(=O)COc3ccccc3)nc12 | inactive: 75%
CC(=O)c1cccc(Nc2nc(-c3ccccc3Cl)nc3ccccc23)c1 | active: 38%
Cc1ccccc1Cn1c2ccccc2c2cnn(CC(=O)NCCc3ccc(Cl)cc3)c(=O)c21 | inactive: 84%
CC(C)c1cccc(C(C)C)c1NS(=O)(=O)c1cccs1 | active: 41%
CC(CCCc1ccccc1)NC(=O)c1nn(-c2ccc(Cl)cc2)nc1CO (configuration not stated) | inactive: 82%
Cc1ccc2[nH]c3c(=O)n(CC(=O)N4CCCC(C)C4)ncc3c2c1 (configuration not stated) | inactive: 76%
O=C(NC1CC(=O)N(c2ccccc2)C1)c1ccc(S(=O)(=O)N2CCCC2)cc1 (configuration not stated) | inactive: 128%
Nc1ncc(S(=O)(=O)NCc2ccc(F)cc2)cn1 | inactive: 72%

Structure (SMILES) | survival
CCc1cccc(NC(=O)C(CC)n2nc(C)c3sc4ccccc4c3c2=O)c1 (configuration not stated) | inactive: 82%
Cc1c(C(=O)NCc2ccccc2Br)oc2ccc3c(c12)C(=O)CC(C)(C)O3 | inactive: 83%
COc1ccc(NC(=O)c2sc3nc4c(cc3c2N)CN(Cc2ccccc2)CC4)cc1OC | inactive: 91%
CC(C)c1ccc(NC(=O)C(Cc2ccccc2)NS(=O)(=O)c2ccc3c(c2)oc(=O)n3C)cc1 (configuration not stated) | inactive: 80%
Cc1noc(-c2ccc(-c3noc(-c4ccc(C(F)(F)F)cc4)n3)cc2)n1 | inactive: 119%
O=C(NCCCN1CCN(c2ccc(F)cc2)CC1)c1ccc2nc(CCc3ccccc3)oc2c1 | inactive: 75%
COc1ccc(Nc2nc(-c3ccccc3F)nc3ccccc23)cc1OC | inactive: 99%
CCc1ccc(NC(=O)c2ccc(F)c(S(=O)(=O)N3CCN(c4cc(C)ccc4C)CC3)c2)cc1 | inactive: 80%
Cc1noc2ncnc(N3CCCC(C(=O)Nc4cccc(C(F)(F)F)c4)C3)c12 (configuration not stated) | inactive: 93%
CC(C)c1ccc(NC(=O)Cn2c(=O)oc3cc(S(=O)(=O)N4CCCC4)ccc32)cc1 | inactive: 103%
CCOC(=O)CC1NC(=O)c2ccccc21 (configuration not stated) | inactive: 69%
CCc1c(C)c(C#N)c2nc3ccccc3n2c1Nc1cccc(C(F)(F)F)c1 | active: 39%
Cc1cc(C)c2c(=O)c3c(oc2c1)C(=O)N(Cc1ccco1)C3c1ccccc1F (configuration not stated) | inactive: 106%
Cn1cc(-c2cc3n(n2)CCC(=O)N3CCCC(=O)Nc2ccccc2F)c2ccccc21 | inactive: 134%
Cc1ccc(O)c(NC(=O)COCc2cc(-c3ccco3)on2)c1 | inactive: 95%
COc1ccc(OC)c(NC(=O)Cn2cc(C(=O)c3ccc(Cl)cc3)c(=O)c3cc(OC)ccc32)c1 | inactive: 66%
CC(=O)Nc1nonc1-c1nnc(SCc2ccccc2Cl)n1C | active: 42%
COc1ccc(Nc2nc(OC)nc(OC)n2)cc1 | inactive: 90%
COc1ccc(-c2cc(C(=O)Oc3cccc(C)c3C)c3ccccc3n2)cc1 | active: 31%
